Here are results for 86 molecules from ChEMBL document CHEMBL1201862, “PubChem BioAssay data set” (2004).

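Test compounds were applied to cells in 96-well plates for 48 hours at 5 doses. GI50 = concentration required for 50% inhibition of growth.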 The source made the active and inactive calls. Cut-off read from the data, not from the text of the source: active = GI50 up to about 1.1 µM and inactive = higher.

The assay deals with NCI-H322M. The assay is described as follows: NCI tumour cell line growth inhibition, 48 h.
As for `CC(/C=C/C(=O)c1sc(-n2nc(-c3ccccc3)cc2-c2ccccc2)nc1C)=C\c1ccccc1`, the GI50 is inactive: 85.1 µM.
`Cn1c(=O)c2nc(CSCc3ccccc3)[nH]c2n(C)c1=O`: the GI50 was inactive: > 100 µM.
Under `O=C1CC(c2c[nH]c3ccccc23)C(=O)N1` (stereo unspecified) stands inactive: > 100 µM.
Consider `Oc1cc(-n2cccn2)c(O)cc1-n1cccn1`, for which the GI50 was inactive: > 70.3 µM.
Take `CCCc1c(O)nc2ccccc2c1O`: the GI50 was inactive: > 100 µM.
The figure for `Nc1nc(O)c2c(n1)NCN(CCCN1CCOCC1)C2` is inactive: > 100 µM; for `COC(=O)C12OCC34C(CC5C(C)=C(O)C(=O)CC5(C)C3C(O)C1O)OC(=O)C(OC(=O)C=C(C)C)C24` (stereo unspecified) it is inactive: > 500 µM; for `O=[N+]([O-])c1nccn1CCCNc1ccnc2cc(Cl)ccc12` it is inactive: 4.74 µM.
Regarding `FC(F)(F)c1cccc(-c2nc3ccccc3c3c2[C@@]2(N4CCCC4)CCCC[C@@H]32)c1`, the GI50 was inactive: 50.2 µM.
Regarding `O=C(Nc1ccc([N+](=O)[O-])cc1)C1C(=O)C(=O)N(c2ccc([N+](=O)[O-])cc2)C1=O` (stereo unspecified), the GI50 was inactive: > 100 µM.
The figure for `NC(Cc1c[nH]c2ccccc12)P(=O)(O)O` (stereo unspecified) is inactive: > 100 µM; for `Clc1ccc(CCN[C@H]2CCCC[C@H]2N2CCCC2)cc1Cl` it is inactive: 17.8 µM; for `COC1=C(OC)CCC(/C(C#N)=C/c2ccc(OC)c(OC)c2)=C1` it is inactive: > 100 µM.
Under `C[N+]1(C(CO)Cc2c[nH]c3ccccc23)Cc2ccccc2C1` (stereo unspecified) stands inactive: > 100 µM.
`CN(C1=NCCO1)c1cccc2c1CCCC2`: the GI50 is inactive: 9.71 µM.
The figure for `COc1cc(OC2OC(CO)C(O)C(O)C2O)c2c(O)c3c(=O)cc(C)oc3cc2c1` (stereo unspecified) is inactive: > 100 µM.
The figure for `CCOC(=O)C(C(=O)OCC)=C1NC2(c3ccccc3Nc3ccc(C)cc32)C(C(=O)OC)S1` (stereo unspecified) is inactive: 75.3 µM; for `CN(C)/C(F)=P\C(F)(F)F` (stereo unspecified) it is inactive: > 100 µM.
The figure for `CC(=O)c1ccc(NC(=O)C(=O)CC(=O)c2sc(-n3nc(-c4ccccc4)cc3-c3ccccc3)nc2C)cc1` is inactive: > 100 µM; for `CCOP(=O)(OCC)C(C(=O)OC)C(=O)C(=O)Nc1cccc([N+](=O)[O-])c1` (stereo unspecified) it is inactive: > 100 µM.
For `Cc1ccc(N2Cc3c(ccc4ccccc34)OP2(=S)N2CCCC2)cc1` (stereo unspecified), the GI50 was inactive: > 63.4 µM.
In the case of `Cc1c(CCOC=O)c(=O)[nH]c2nncn12`, the GI50 is inactive: > 100 µM.
The figure for `CCOC(=O)CCC(NC(=O)c1ccc(NCc2ccc3nc(OC)c(OC)nc3c2)c2ccccc12)C(=O)OCC` (stereo unspecified) is inactive: > 100 µM.
In the case of `CCOC(=O)CC(c1ccccc1)C(C)(C(=O)OCC)C(=O)OCC` (stereo unspecified), the GI50 is inactive: > 100 µM.
For `COc1ccc(C=C2C(C)=NN(c3cccc(Cl)c3)C23C(Cl)C(=O)N3c2nc3ccccc3s2)cc1` (stereo unspecified), the GI50 is inactive: 26.6 µM.
As for `CCOC(=O)c1cc(C2(O)CCN(CC(C)CC)C2=O)c(-c2cc(C)no2)[nH]1` (stereo unspecified), the GI50 was inactive: > 100 µM.
Under `O=c1c2c3c(sc2nc2n1sc1nc4sc5c(c4c(=O)n12)CCCC5)CCCC3` stands inactive: > 87.9 µM; under `CN(c1nc(=[N+](C)C)ss1)C1CCCCC1`, inactive: > 100 µM; under `COc1ccc(C2(CC(C)O)SCCCS2)cc1` (stereo unspecified), inactive: > 100 µM.
`O=CC1CCCc2ccccc21` (stereo unspecified): the GI50 is inactive: > 100 µM.
Under `Nc1cc2c(C3OC(CO)C(O)C3O)n[nH]c2c(=S)[nH]1` (stereo unspecified) stands inactive: > 100 µM; under `Cc1c(C(=O)C/C(=N/NC(=O)c2ccccc2)C(=O)Nc2ccc(Cl)cc2)[n+]([O-])c2ccccc2[n+]1[O-]`, inactive: > 100 µM; under `CC1CC2C(=O)N(c3ccccc3)C(=O)C2c2c1c1ccccc1n2Cc1ccccc1` (stereo unspecified), inactive: > 100 µM.
Under `COC(=O)CC(NC(=O)OCc1ccccc1)C(C(C)=O)C(=O)OCc1ccccc1` (stereo unspecified) stands inactive: > 31.6 µM; under `O=C(c1c(Cl)cc(Cl)cc1Cl)N(Cc1cccnc1)C(=S)N(Cc1cccnc1)C(=O)c1c(Cl)cc(Cl)cc1Cl`, inactive: 7 µM.
Regarding `CC(C)(C)n1c(=O)n2c(-c3ccccc3)c(-c3ccccc3)n2c1=O`, the GI50 is inactive: > 100 µM.
The figure for `CC1(C)C2=CCCC(=O)[C@@]2(C)CC[C@@H]1O` is inactive: > 100 µM.
Take `S=C(N/N=C(/c1ccccc1)c1ccccn1)N1CCCCCC1`: the GI50 was active: 0.0513 µM.
Regarding `CC(=O)C(CN(Cc1ccccc1)Cc1ccccc1)C(c1ccccc1)c1c(O)c2ccccc2oc1=O` (stereo unspecified), the GI50 is inactive: > 100 µM.
As to `Cc1ccc(O)c(/N=N\c2c(O)cc(S(=O)(=O)O)c3ccccc23)c1`, the GI50 was inactive: 53.5 µM.
Consider `N#CC1(C#N)C(C#N)(C#N)C12CCCCCC2`, for which the GI50 was inactive: 20.3 µM.
Under `CCc1ccc2c(c1)/C(=C1/Nc3ccccc3C1=O)C(=O)N2` stands inactive: 9.1 µM; under `COC(=O)/C=C1/OC(c2ccccc2)=C(Cl)C1=O`, inactive: 27.2 µM; under `COC(=O)C1CC2C=CC1N(C(=O)OCc1ccccc1)C2` (stereo unspecified), inactive: > 100 µM.
For the molecule `COc1cc2c(c(O)c1OC)CC1CCC(=O)N1C2c1cccc2ccccc12` (stereo unspecified), the GI50 is inactive: 34.2 µM.
Under `C/C(=N\[N+](C)(C)C)c1ccc(C)c(C)c1` stands inactive: > 100 µM.
Consider `OC1c2[nH]c3ccccc3c2CCN2CCCCC12` (stereo unspecified), for which the GI50 is inactive: > 100 µM.
The figure for `CC1=C(C(=O)Nc2cccc(Cl)c2)C(c2ccccc2F)C(C(=O)Nc2cccc(Cl)c2)=C(C)N1` is inactive: 14.6 µM; for `N#CC1(C#N)NC(c2cccs2)C(C#N)(C#N)NC1c1cccs1` (stereo unspecified) it is inactive: 57 µM.
Under `N#Cc1nc(-c2ccccn2)oc1N` stands inactive: > 100 µM; under `COc1ccccc1NC(=O)C1=C(C)NC(C)=C(C(=O)Nc2ccccc2OC)C1/C=C/c1ccccc1`, inactive: > 100 µM; under `C[C@H]1CC(=O)C[C@@H]2CC[C@@H]3[C@H](CC[C@]4(C)C(OC(=O)c5cccc6c(=O)c7ccccc7[nH]c56)CC[C@@H]34)[C@]21C` (stereo partly specified), inactive: 58.2 µM.
Under `Clc1ccccc1/C=C/c1cscn1` stands inactive: > 100 µM; under `CCOP1(=O)C=CC(Cl)=C(C)C1` (stereo unspecified), inactive: 23 µM.
With `CC1CCc2sc3nc4n(c(=O)c3c2C1)CC(C)S4` (stereo unspecified), the GI50 is inactive: 25.5 µM.
Consider `C=C(C)C1Cc2c(cc(OC)c3c(=O)c4cccc(O)c4oc23)O1` (stereo unspecified), for which the GI50 was inactive: 36.1 µM.
In the case of `Cn1c2ccccc2c2c3c(c4c5ccccc5n(C)c4c21)C(=O)N(c1ccccc1)C3=O`, the GI50 is inactive: > 100 µM.
Take `CCCCn1c(C)c(C(=O)OCC)c2cc(OCc3ccc(C(=O)Nn4c(C)ccc4C)cc3)c(Br)cc21`: the GI50 was inactive: > 100 µM.
Consider `CN(C)CCNC(=O)c1cc(-c2nccn2C)nc2ccccc12`, for which the GI50 was inactive: > 100 µM.
For the molecule `O=C(/C=C/c1c(O)ccc2ccccc12)c1ccc2ccccc2c1`, the GI50 was inactive: > 100 µM.
Regarding `CC1(O)C2(c3ccccc3)CCC[N+]1(C)CC2` (stereo unspecified), the GI50 is inactive: > 100 µM.
Under `NC(=O)C(=O)N/N=C(\CC1(O)C(=O)Nc2ccccc21)c1ccc2ccccc2c1` (stereo unspecified) stands inactive: > 10 µM; under `CC(C(=O)O)C1Nc2ccccc2NC1=O` (stereo unspecified), inactive: > 100 µM.
Regarding `CN1C=Cc2nccc3cc4c(c1c23)OCO4`, the GI50 was inactive: 1.63 µM.
Regarding `O=C1c2cccc3cc([N+](=O)[O-])cc(c23)C(=O)N1O`, the GI50 was inactive: 26.2 µM.
The figure for `CC(=O)O/C=C\OC1CCCC1` is inactive: > 100 µM; for `CC(CO)CCNc1ncnc2c1ncn2CCC#N` (stereo unspecified) it is inactive: > 100 µM; for `CSC1=Nc2ccccc2-c2nc(-c3ccccc3)cc(-c3ccccc3)c2C1` it is inactive: 24.7 µM.
The figure for `COc1ccc(N(c2ccc(C#N)cc2)c2ccc(C#N)cc2)cc1` is inactive: 99.5 µM; for `COc1cc2c(cc1OC)CC(N=[N+]=[N-])c1cc(OC)c(OC)cc1/C=C\2` (stereo unspecified) it is inactive: 43.9 µM; for `Cc1c(/C=N/N(C)C)oc2c1cc(O)c1ncccc12` it is inactive: 1.96 µM.
As for `C/C(CC(=O)Nc1cccc(C)c1C)=N\NC(N)=S`, the GI50 was inactive: > 100 µM.
For `O=C1c2c(Br)sc(Br)c2[C@H]2NC(=S)O[C@@H]12`, the GI50 is inactive: 19 µM.
The figure for `COc1ccc(OC)c2c1C(=O)C1CC1(Br)C2=O` (stereo unspecified) is inactive: > 100 µM.
Consider `O=c1c2ccccc2n2n1Cc1ccccc1C2`, for which the GI50 was inactive: 75.7 µM.
Take `CN(C)c1n/c(=N/c2ncn[nH]2)ss1`: the GI50 was inactive: > 100 µM.
With `COC(=O)C(=O)C(C(=O)C(=O)Nc1ccc(Cl)cc1Cl)c1nc2ccc(Cl)cc2nc1O` (stereo unspecified), the GI50 is inactive: > 100 µM.
The figure for `Nc1ccc(C(=O)NN2C(=O)C(Cl)C2c2ccccc2)cc1` (stereo unspecified) is inactive: > 100 µM; for `CCOC(=O)C1C(=O)c2ccccc2CN1Cc1ccccc1` (stereo unspecified) it is inactive: > 100 µM.
For `CC(=O)O[C@H]1CC[C@@]2(C)C(=CC[C@@H]3C2CC[C@]2(C)C(=O)NC(=O)CC32)C1` (stereo partly specified), the GI50 is inactive: > 100 µM.
The figure for `O=C(c1cccc(OCc2ccccc2)c1OCc1ccccc1)N1CCSC1=S` is inactive: 39.5 µM.
Turning to `COc1cccc(/C=N/[N-]C(=S)Nc2ccccc2)c1[O-].O.[Zn+2]`, the GI50 is inactive: 51.4 µM.
Regarding `CC1CC(=O)CC[C@@H]1OCc1ccccc1` (stereo partly specified), the GI50 is inactive: > 100 µM.
Take `COC(=O)CC(C(C(=O)OC)C(=O)OC)N1C(=O)OC(c2ccccc2)C1c1ccccc1` (stereo unspecified): the GI50 is inactive: > 100 µM.
Turning to `CN(C)Cc1cc(C(=O)/C=C/c2c(F)cccc2Cl)cc(CN(C)C)c1O`, the GI50 is inactive: 14.3 µM.
The figure for `O=c1c(C(c2ccc(-c3ccccc3)cc2)c2c(O)oc3ccccc3c2=O)c(O)oc2ccccc12` is inactive: 30.4 µM.
